Laboratory results taken from US20160192643A1, “NEW ANTIFUNGAL COMPOSITION FOR TREATMENT OF SOIL” (CERADIS B.V., priority 2013, published 2016).

System: Pythium aphanidermatum
Experiment: Polyelectrolyte formulation against Pythium aphanidermatum in Chrysanthemum soil
Conditions: end of the trial, after 44 days; percentage of the bottom of the crates covered with roots

How did the “rooting in percentage at the bottom side of the crates” value turn out when `C[C@@H]1C/C=C/C=C/C=C/C=C/[C@H](O[C@@H]2O[C@H](C)[C@@H](O)[C@H](N)[C@@H]2O)C[C@@H]2O[C@](O)(C[C@@H](O)C[C@H]3O[C@@H]3/C=C/C(=O)O1)C[C@H](O)[C@H]2C(=O)O` [Natamycin, natamycin] was run?
The value was 8.8%.
